This note sets out measurements from the RNAGym collection of RNA variant scans (doi:10.7554/elife.90254).

Read counts are not given, so values of variants with three or more changes are uncertain.

Sequences and labels used below:
B1: OR4K15 (parent)
chain: GUUAACGGUCAUAGGCCAUGGAAACUAGGAGCACCAUUUCGCUGCCAGUGAAGAAAUGAACAAAGAAAAUCUGGGCCAGGCAGGCAUCAAAAGAAAUAGUCUUGCGCUCAACCAGAAAGUCUGUAAUCAUUUUAAGGGUA

In the data set the parent is B1. Kind of data set: self-cleavage, relative activity (ratio to wild type); higher = more cleavage; in vitro, sequencing; the parent is a self-cleaving ribozyme.
Turning to GUUAACGGUCGUAGGCCAUGGAAACUAGGAGCACCAUUUCGCUGCCAGUGAAGAAAUGAGCAAAGAAAAUCUGGGCCAGGCAGGCAUCAAGAGGAAUAGUCUUGCGCUCAACCAGGAAGUCUGUAAUCAUUUUAAGGGUA [A11G A60G A91G A94G A116G], the self-cleavage worked out at 0.46.
In the case of GUUAACGGUCGUAGGCCAUGGAAACUAGGAGCACCAUUUCGCUGCCAGUGAAGAAAUGGACAACGAAAAUCUGGGCCAGGCAGGCAUCAAAAGAUAUAGUCUUGCGCUCAACCAGAAAGUCUGUAAUCAUUUUAAGGGUA [A11G A59G A64C A95U] it was 0.47.
In the case of GUUAACGGUCGUAGGCCAUGGAAACUAGGAGCACCAUUUCGCUGCCAGUGAAGGAAUGAACAGAGAAAAUCUGGGCCAGGCAGGCAUCAAAAGAAAUAGUCUUGCACUCAACCAGAAAGUCUGUAGUCAUUUUAAGGGUA [A11G A54G A63G G106A A126G] it was 0.02; in that of GUUAACGGUCGUAGGCCAUGGAAACUAGGAGCACCAUUUCGCUGCCAGUGAAGAAAUGACCAAAGAAUGUCGGGGCCAGGCAGGCAUCAAAAGAAAUAGUCUUGCGCUCAACCAGAAAGUCUGUAAUCAUUUUAAGGGUA [A11G A60C A68U A69G U72G], 0.32; in that of GUUAACGGUCGUAGGCCAUGGAAACUAGGAGCACCAUUUCGCUGCCAGUGAAGAAAUGAACGAAGAAGAUCUGGGCCAGGCAGGCAUCAAAAGAAAUAGUCUUGCGCUCAACCAGAAAGUCUGUAAUCAUUUUAAGGGUA [A11G A62G A68G], 1.17.
Regarding GUUAACGGUCGUAGGCCAUGGAAACUAGGAGCACCAUUUCGCUGCCAGUGAAGAAAUGAGCAAAGAAAAUCUGGGCCAGGCAGGCAUCAAAAGAAAUAGUCUUGCGCUCAACCAGAAAGUCUGUAAUCAUUUUAAGGGAA [A11G A60G U139A], the self-cleavage was 0.64.
GUUAACGGUCGUAGGCCAUGGAAACUAGGAGCACCAUUUCGCUGCCAGUGAGGAAGUGAACAAAGAAAAUCUGGGCCAGGCAGGCAUCAGAAGAAAUAGUCUUGCGCUCAACCAGAAAGUCUGUAAUCAUUUUAAGGGUA [A11G A52G A56G A90G]: the self-cleavage is 1.25.
As for GUUAACGGUCGUAGGCCAUGGAAACUAGGAGCACCAUUUCGCUGCCAGUGAAGAAAUGAGCAAAGAAAAUCUGGGCCAGGCAGGCAUCAAAAGAAAUAGUCUUGCGCUCAACCAGAUAGUCUGUAAUCAUUUUAAGGGCA [A11G A60G A117U U139C], the self-cleavage worked out at 0.3.
In the case of GUUAACGGUCGUAGGCCAUGGAAACUAGGAGCACCAUUUCGCUGCCAGUGAAGAAAUGAACUAAGAAAAUCUGGGCCAGGCAGGCAUCAAAAGAAAUAGUCUUGCGCUCAACCAGAAAGUCUGCAAUCAUUUUAAGGGUA [A11G A62U U124C] it was 0.92; in that of GUUAACGGUCGUAGGCCAUGGAAACUAGGAGCACCAUUUCGCUGCCAGUGAAGAAGUGAGCAAAGAAAACCUGGGCCAGGCAGGCGUCAAAAGAAAUAGUCUUGCGCUCAACCAGAAAGUCUGUAAUCAUUUUAAGGGUA [A11G A56G A60G U70C A86G], 0.17; in that of GUUAACGGUCGUAGGCCAUGGAAACUAGGAGCACCAUUUCGCUGCCAGUGGAGAAAUGAACAAAGAAAAUCUGGGCCAGGCAGGCAUCAAAAGAGAUAGUCUUGCGCUCAACCAGAAAGUCUGUAAUCAUUUUAAGGGUA [A11G A51G A95G], 0.61.
To GUUAACGGUCGUAGGCCAUGGAAACUAGGAGCACCAUUUCGCUGCCAGUGAGGAAAUGAACAAAGAAAAUCUGGGCCAGGCCGGCAUCAAAAGAAAUAGUCUUGCGCUCAACCAGAAAGUCUGUAAUCGUUUUAAGGGUA [A11G A52G A82C A129G] belongs 0.06; to GUUAACGGUCGUAGGCCAUGGAAACUAGGAGCACCAUUUCGCUGCCAGUGAAGGAAUGAACAAAGAAAAUCUGGGCCAGGCAGGCAUCAAAAGAAGUAGUCUUGCGCUCAACCAGAAAGUCUGUAAUCAUUUUGAGGGUA [A11G A54G A96G A134G], 0.96.
In the case of GUUAACGGUCGUAGGCCAUGGAAACUAGGAGCACCAUUUCGCUGCCAGUGAAGAAAUGGACAAAGAAGAUCUGGGCCAGGCAGGUAUCAAAAGAAAUAGUCUUGCGCUCAACCAGAAAGUCUGUAAUCAUUUUAAGGGUA [A11G A59G A68G C85U] it was 0.51; in that of GUUAACGGUCGUAGGCCAUGGAAACUAGGAGCACCAUUUCGCUGCCAGUGAAGAAAUGGACAGAGAAAAUCUGGGCCAGGCAGGCAUCAUAAGAAAUAGUCUUGCGCUCAACCAGAAAGUCUGUAUUCAUUUUAAGGGUA [A11G A59G A63G A90U A126U], 0.52.
As for GUUAACGGUCGUAGGCCAUGGAAACUAGGAGCACCAUUUCGCUGCCAGUGAAGAAAUGAACGAAGAAAAUCUGGGCCAGGCAGGCAUCAAAAAAAAUAGUCUUGCGCUCAACCAGAAAGUCUGUAAUCAUUUUAAGGGUA [A11G A62G G93A], the self-cleavage amounted to 1.26.
Take GUUAACGGUCGUAGGCCAUGGAAACUAGGAGCACCAUUUCGCUGCCAGUGGAGAAAUGAACAAAGAAAAUCUGGGCCAGGCAGGCAUCAAAAGAAAUAGUCUUGGGCUCAACCAGAAAGUCUGCAAUCAUUUUAAGGGUA [A11G A51G C105G U124C]: the self-cleavage amounted to 0.03.
As to GUUAACGGUCGUAGGCCAUGGAAACUAGGAGCACCAUUUCGCUGCCAGUGGAGAAAUGAACAAAGAAAAUCUGGGCCAGGCAGGCAUCAAAAGAAAUAGUCCUGCGCUCAACCAGAAAGUCUGUAAUCAUUUUAAGGGUA [A11G A51G U102C], the self-cleavage came out at 1.51.
To GUUAACGGUCGUAGGCCAUGGAAACUAGGAGCACCAUUUCGCUGCCAGUGAAGAAAUGAACAGAGAAAAUCUGGGCCAGGCAGGCAUCAAAAGAAAUAGUCUUGCGCUCAACCAGAAAGUCUGUUAUCAUUUUAAGGGUA [A11G A63G A125U] belongs 1.6; to GUUAACGGUCGUAGGCCAUGGAAACUAGGAGCACCAUUUCGCUGCCAGUGAAGAGAUGAACAAAGAAAAUCUGGGCCAGGCAGGCAUCAAAAGAAAUAGCCUUGCGCUCAACCAGAAAGUCUGUAAUCAUUUUAAGGGUA [A11G A55G U100C], 1.11; to GUUAACGGUCGUAGGCCAUGGAAACUAGGAGCACCAUUUCGCUGCCAGUGAGGAAAUGAACAAAGAAAAUCUGGGCCAGGCAGGCACCAAAAGAAAUAGUCUUGCGCUCAACCAGAAAGUCUGUAAUCAUUUUAAGGGUA [A11G A52G U87C], 0.78.
